The text below walks through data of PubChem BioAssay (NCI).

Values joined by “and” are separate entries in the source; they are usually repeats but may differ in a detail not shown here. Equal values may be shown once.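 Step 1: Grow cells in 96-well plates. Step 2: Expose to compound for 48 hours at 5 concentrations. Step 3: Interpolate endpoints linearly; if unreached, use highest concentration. The concentration for 50% growth inhibition is given as GI50. TGI: concentration producing complete growth inhibition.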 Numbered stars: 1 amine (or outer) side, 2 acyl side, 3 side chain; on linkers, the order of the positions; unused ones are H or OH. Bridge positions count the residues as written; N and C are the ends. Square brackets hold non-standard residues; d marks the D form. Peptide text beside a SMILES is read from it. I, II: the chains in the order shown. Actinocin(9to1) = Cc1c2oc3c(C)ccc(C(=O)[*:1])c3nc-2c(C(=O)[*:2])c(N)c1=O; NMeV = CN[CH](C(=O)O)C(C)C; Sar = CNCC(=O)O

The subject of the assay is NCI-H322M lung. Description: NCI-60 cell line screen, 48 h.

Take `O=c1/c(=C/c2c(O)ccc3ccccc23)sc2nc3ccccc3n12`: the TGI is above 100 µM.
On to `COc1ccc(N2CN(C)CSC2=S)cc1`, for which the TGI is above 100 µM.
Compound `COC(=O)[C@@H]1[C@H](O)CCC2=C(CC(=O)c3ccoc3)[C@H](C)CC[C@]21C` registered a TGI above 50 µM.
For the compound `O=C(O)C1CCN(Cc2oc(CO)cc(=O)c2O)C1` (stereo not drawn), the TGI was above 100 µM.
`CSC(=Nc1ccccc1Cl)NC(=O)c1ccc(Br)cc1` came in with a TGI above 100 µM.
On the same count and under the same terms, then `O=C1CCCCC/C1=C\c1cccc([N+](=O)[O-])c1`, with above 100 µM; and `C#CCN(N=O)C(=O)NCCCCC(NC(=O)OCc1ccccc1)C(=O)OCc1ccccc1` (stereo not drawn), with above 100 µM; and `CN(C)CCNC(=O)c1cccc2nc3ccc4cccnc4c3nc12`, with 3.43 µM.
As for `COc1cc(OC)cc(-c2nc3sccn3c2/C=N/N=C(N)N)c1`, the GI50 is 5.99 µM and the TGI was 12.1 µM.
`O=C(N/N=C\c1cccs1)c1ccncc1` yielded a TGI above 100 µM.
In turn, `O=C1NC(=O)[C@@]2(CC[C@@H](O)C2)c2ccncc21` yielded a TGI above 100 µM.
As for `C=C1C(=O)O[C@H]2[C@H]1CC/C(COC(=O)c1cn(C)c3ccccc13)=C\CC[C@@]1(C)O[C@@H]21`, the GI50 is 3.01 µM and the TGI was 11.4 µM.
Take `Cc1ccc(S(=O)(=O)/N=C2/N(C)CCCS2(=O)=O)cc1`: the TGI is above 100 µM.
`O=S(c1ccccc1)C1CC2CC3(CCC21O)OCCO3` (stereo not drawn) yielded a TGI above 100 µM.
On the same count and under the same terms, then `C=C1C(=O)[C@]23C[C@H]1C[C@@H](O)[C@H]2[C@]1(COC3=O)[C@@H](OC(C)=O)CC[C@@](C)(COC(C)=O)[C@H]1C=O`, with above 50 µM.
On to `O=C1NCN(c2ccccc2)C12CCN(CCCC(c1ccc(F)cc1)c1ccc(F)cc1)CC2`, for which the GI50 is 4.09 µM and the TGI worked out at 16.6 µM.
`O=C(O)C(Br)C(Br)C(=O)O` (stereo not drawn) displayed a TGI above 100 µM.
Same read-out and setting: with `C=CCOC(=O)c1c(C)n([O-])c2cc(Cl)c(Cl)cc2[n+]1=O` the figure was 85.7 µM.
As to `CCCCC[C@H]1CC=C2C(=O)C=C[C@@H]2CC=CCCCC(=O)O[C@@H](CCCCC)CC=C2C(=O)C=C[C@@H]2CC=CCCCC(=O)O[C@@H](CCCCC)CC=C2C(=O)C=C[C@@H]2CC=CCCCC(=O)O1`, the GI50 was 1.56 µM and the TGI was above 8.75 µM.
For the compound `N#C/C(=C/n1c(=S)[nH]c2ccccc21)C(N)=O`, the TGI is above 100 µM.
On the same count and under the same terms, with `COC(=O)[C@H]1[C@@H](O)[C@@]2(O)c3c(OC)cc(OC)cc3O[C@@]2(c2ccc3c(c2)OCO3)[C@@H]1c1ccccc1` the figure was 0.193 µM.
Consider `CCOC(=O)CCC(NC(=O)c1ccc(Nc2nc3cc(C(F)(F)F)ccc3nc2C(=O)OCC)cc1)C(=O)OCC` (stereo not drawn), for which the TGI amounted to 24.8 µM.
The same measure, in the same setting: with `CCCCC(=C=C(C)CO)C1CCCN1C(=O)OC(C)(C)C` (stereo not drawn) the figure was 57.6 µM.
On to `CCCN(CCC)CCc1cc(C(C)=O)n(S(=O)(=O)c2ccc(C)cc2)c1`, for which the TGI was above 100 µM.
For the compound `CN(C)c1ccc(C(=N)c2ccc(N(C)C)cc2)cc1`, the GI50 is 9.53 µM and 14.3 µM; the TGI is 69.9 µM and > 100 µM.
Turning to `CC(=Nc1ccccc1)C1=C(O)C(Cc2cccc(F)c2)NC1=O` (stereo not drawn), the GI50 is 0.0796 µM and the TGI is above 100 µM.
On to `C[C@@H](NC(=O)[C@@H]1C[C@]1(C)CO)c1cccc2ccccc12`, for which the TGI was above 100 µM.
Take `C=C(C)[C@@H]1C/C=C(/CO)CC[C@H]2O[C@]2(C)CC/C=C(\C)CC1`: the GI50 is 11.9 µM and the TGI is 29.3 µM.
Take `COc1ccc(-c2nsc3c2NC(=O)CC3c2ccc3c(c2)OCCO3)cc1` (stereo not drawn): the GI50 was 43.6 µM and the TGI is above 100 µM.
In turn, `CC(C(=O)NCCNC(=O)CCC(=O)N(C)O)C(=O)NCCNC(=O)CCC(=O)N(C)O` came in with a TGI above 100 µM.
In turn, `CNC(=O)c1cc2nc3ccccc3c(=O)n2c2ccccc12` gave a TGI above 10 µM.
Still for that read-out and setting: then `N#CNC(=NCc1ccccc1)NCCc1c[nH]c2ccccc12`, with above 100 µM.
Same read-out and setting: then `CCCCOc1c(C(=O)O)cc(Br)cc1C(=O)O`, with above 100 µM; and `COc1cccc2c1C(=O)c1c(O)c3c(c(O)c1C2=O)C[C@@](O)(C(=O)CN1CCOCC1)C[C@@H]3OC1CC(N)C(O)C(C)O1` (stereo partly drawn), with above 84.3 µM.
The same measure, in the same setting: with `Cc1ccc(NC(=O)C(=O)C(C(=O)c2ccc3ccccc3c2)C2OC(=O)c3ccccc32)c(C)c1` (stereo not drawn) the figure was 31.1 µM.
For `COc1cc(OC)c(/C=C/C(=O)c2ccc(Nc3ncnc4ccccc34)cc2)c(OC)c1`, the GI50 is 2.38 µM and the TGI was found to be 7.43 µM.
Take `COC(=O)CCCC1(CCCC(=O)OC)CCCCCCCCC(CCCC(=O)OC)(CCCC(=O)OC)C(=O)C1=O`: the TGI is above 100 µM.
On to `c1ccc2cc(Cn3cc[n+](Cc4ccc5ccccc5c4)c3)ccc2c1`, for which the GI50 is 8.4 µM and the TGI is 21.3 µM.
Compound `c1ccc(C(c2cccc3c2ccc2ccccc23)C(c2ccccc2)c2cccc3c2ccc2ccccc23)cc1` (stereo not drawn) registered a TGI above 100 µM.
Turning to `CCN1C(=O)N(CC)C2C1NN=c1s/c(=C\c3cccs3)c(=O)n12` (stereo not drawn), the GI50 is 0.618 µM and the TGI is above 100 µM.
`CCn1c(-c2ccc(OC)cc2)nc2c1C(=O)c1ccccc1C2=O` had a TGI above 100 µM.
`CCn1c(-c2c(Cl)cc(O)cc2Cl)cc2c(Cl)cc(O)cc21` returned a TGI of 32.8 µM.
In the case of `Nc1ncn(C2OC(COP(=O)(O)O)C(O)C2O)c(=O)n1` (stereo not drawn), the TGI is above 100 µM.
Still for that read-out and setting: with `Nc1ncnc2c1ncn2C1OC(CO)C(O)C1NS(=O)(=O)c1ccccc1` (stereo not drawn) the figure was above 100 µM; with `Cc1nc2ccccc2c(=O)n1NC(=O)c1ccccc1[N+](=O)[O-]`, above 100 µM.
Regarding `Cc1c2oc3c(C)ccc(C(=O)OC(C)C4NC(=O)C(C(C)C)N(C)C(=O)CN(C)C(=O)C5CCCN5C(=O)C(C(C)C)NC4=O)c3nc-2c(C(=O)OC(C)C2NC(=O)C(C(C)C)N(C)C(=O)CN(C)C(=O)C3CCCN3C(=O)C(C(C)C)NC2=O)c(N)c1=O` (stereo not drawn) (I: cyclo([Sar][NMeV]TVP) / II: cyclo([Sar][NMeV]TVP); linker I:3-II:3 via Actinocin(9to1); configuration not given here), the GI50 was below 0.01 µM and the TGI was found to be 0.301 µM.
As to `O=C(O)CNc1ccc(Cl)c(Cl)c1`, the TGI was 87 µM.
For the compound `COC12C=C/C(=C(/C(=O)OCCSc3ccnn3C)C(=O)CCCCCCCCC3(OC)C=C/C(=C(/C(=O)OCCSc4ccnn4C)C(=O)CCCCCCCC1)O3)O2`, the GI50 is 1.63 µM and the TGI is above 32.5 µM.
The compound `CC(CN1CC(=O)NC(=O)C1)N1CC(=O)NC(=O)C1` (stereo not drawn) displayed a TGI above 750 µM.
`O=P(O)(O)OCC1OC(n2cnc3c(NCc4ccco4)ncnc32)C(O)C1O` (stereo not drawn): the GI50 is 0.431 µM and the TGI is above 100 µM.
`CSc1c2c(C)n[nH]c2nn1-c1ccccc1` came in with a TGI above 100 µM.
`O=S(=O)(c1ccccc1)c1nccs1` gave a TGI above 100 µM.
The compound `COc1cc(S(=O)(=O)Nc2ccc(-c3csc(N4C(=O)C(Cl)C4c4cccc(Oc5ccccc5)c4)n3)cc2)ccc1Cl` (stereo not drawn) gave a TGI above 100 µM.
The same measure, in the same setting: with `COc1ccc(C2S/C(=C\c3cccc(OC)c3)C(=O)N2NC(=O)Cc2ccccc2)cc1` (stereo not drawn) the figure was above 100 µM.
For the compound `Cc1ccc(-c2c(C#N)[n+](=O)c3cc(F)c(F)cc3n2[O-])cc1`, the GI50 is 12.3 µM and the TGI turned out to be 26.8 µM.
The compound `CCOC(=O)C1(C#N)C2(C#N)C(N)=NC(ON=C(C)C)(ON=C(C)C)C12C#N` (stereo not drawn) came in with a TGI above 100 µM.
Still for that read-out and setting: then `N=S(=O)(c1ccccc1)c1ccccc1`, with above 100 µM; and `COC1=CC(=O)c2c(cc(COP(N)(=O)N(CCCl)CCCl)n2C)C1=O` (stereo not drawn), with 8.47 µM.
